Assay results: the supplement of paper PMC8728848
The list shows a part of the results.

Columns and labels:
Assay in all cases: glycan array binding signal (z-score within array); higher = stronger binding
Conditions in all cases: glycan notation: IUPAC condensed, linker removed; mutation: F63H
[1] = target: Neu5Ac(a2-3)Gal(b1-4)GlcNAc(b1-3)[Neu5Ac(a2-3)Gal(b1-4)GlcNAc(b1-6)]GalNAc
Procedure, shortened: (§1)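 Glycan array data were curated from 3228 arrays in the Consortium for Functional Glycomics database and kept only where the protein sequence was available. Glycan names were converted to IUPAC-condensed notation, and columns mapping to the same glycan were averaged. The binding signal is a within-array Z-score, averaged across arrays of the same protein sequence at different concentrations or buffers and across linkers. Negative Z-scores can be read as non-binding.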

[2] = target: Neu5Ac(a2-3)Gal(b1-4)GlcNAc(b1-6)GalNAc
Procedure, shortened: as §1

[3] = target: Neu5Ac(a2-3)Gal(b1-4)GlcNAc(b1-6)[Gal(b1-3)]GalNAc
Procedure, shortened: as §1

[4] = target: Neu5Ac(a2-3)Gal(b1-4)GlcNAc(b1-6)[Neu5Ac(a2-3)Gal(b1-3)]GalNAc
Procedure, shortened: as §1

[5] = target: Neu5Ac(a2-3)Gal(b1-4)GlcNAc6S
Procedure, shortened: as §1

[6] = target: Neu5Ac(a2-3)Gal(b1-4)[Fuc(a1-3)]GlcNAc
Procedure, shortened: as §1

[7] = target: Neu5Ac(a2-3)Gal(b1-4)[Fuc(a1-3)]GlcNAc(b1-2)Man
Procedure, shortened: as §1

[8] = target: Neu5Ac(a2-3)Gal(b1-4)[Fuc(a1-3)]GlcNAc(b1-3)Gal
Procedure, shortened: as §1

[9] = target: Neu5Ac(a2-3)Gal(b1-4)[Fuc(a1-3)]GlcNAc(b1-3)Gal(b1-4)GlcNAc
Procedure, shortened: as §1

[10] = target: Neu5Ac(a2-3)Gal(b1-4)[Fuc(a1-3)]GlcNAc(b1-3)Gal(b1-4)[Fuc(a1-3)]GlcNAc(b1-3)Gal(b1-4)[Fuc(a1-3)]GlcNAc
Procedure, shortened: as §1

[11] = target: Neu5Ac(a2-3)Gal(b1-4)[Fuc(a1-3)]GlcNAc(b1-3)GalNAc
Procedure, shortened: as §1

[12] = target: Neu5Ac(a2-3)Gal(b1-4)[Fuc(a1-3)]GlcNAc(b1-6)[Gal(b1-3)]GalNAc
Procedure, shortened: as §1

[13] = target: Neu5Ac(a2-3)Gal(b1-4)[Fuc(a1-3)]GlcNAc(b1-6)[Neu5Ac(a2-3)Gal(b1-3)]GalNAc
Procedure, shortened: as §1

[14] = target: Neu5Ac(a2-3)Gal(b1-4)[Fuc(a1-3)]GlcNAc6S
Procedure, shortened: as §1

[15] = target: Neu5Ac(a2-3)Gal6S(b1-4)GlcNAc
Procedure, shortened: as §1

[16] = target: Neu5Ac(a2-3)Gal6S(b1-4)[Fuc(a1-3)]GlcNAc
Procedure, shortened: as §1

Neu5Ac(a2-3)GalNAc = target: Neu5Ac(a2-3)GalNAc
Procedure, shortened: as §1

[17] = target: Neu5Ac(a2-3)GalNAc(b1-4)GlcNAc
Procedure, shortened: as §1

[18] = target: Neu5Ac(a2-3)[GalNAc(b1-4)]Gal(b1-4)Glc
Procedure, shortened: as §1

[19] = target: Neu5Ac(a2-3)[GalNAc(b1-4)]Gal(b1-4)GlcNAc
Procedure, shortened: as §1

[20] = target: Neu5Ac(a2-3)[GalNAc(b1-4)]Gal(b1-4)GlcNAc(b1-3)GalNAc
Procedure, shortened: as §1

[21] = target: Neu5Ac(a2-3)[Neu5Ac(a2-6)]GalNAc
Procedure, shortened: as §1

Neu5Ac(a2-6)Gal = target: Neu5Ac(a2-6)Gal
Procedure, shortened: as §1

[22] = target: Neu5Ac(a2-6)Gal(b1-3)GlcNAc(b1-3)[Gal(b1-4)GlcNAc(b1-6)]Gal(b1-4)Glc
Procedure, shortened: as §1

Neu5Ac(a2-6)Gal(b1-4)Glc = target: Neu5Ac(a2-6)Gal(b1-4)Glc
Procedure, shortened: as §1

[23] = target: Neu5Ac(a2-6)Gal(b1-4)GlcNAc
Procedure, shortened: as §1

[24] = target: Neu5Ac(a2-6)Gal(b1-4)GlcNAc(b1-2)Man
Procedure, shortened: as §1

[25] = target: Neu5Ac(a2-6)Gal(b1-4)GlcNAc(b1-2)Man(a1-3)Man(b1-4)GlcNAc(b1-4)GlcNAc
Procedure, shortened: as §1

[26] = target: Neu5Ac(a2-6)Gal(b1-4)GlcNAc(b1-2)Man(a1-3)[Gal(b1-4)GlcNAc(b1-2)Man(a1-6)]Man(b1-4)GlcNAc(b1-4)GlcNAc
Procedure, shortened: as §1

[27] = target: Neu5Ac(a2-6)Gal(b1-4)GlcNAc(b1-2)Man(a1-3)[GlcNAc(b1-2)Man(a1-6)]Man(b1-4)GlcNAc(b1-4)GlcNAc
Procedure, shortened: as §1

[28] = target: Neu5Ac(a2-6)Gal(b1-4)GlcNAc(b1-2)Man(a1-3)[GlcNAc(b1-4)][Neu5Ac(a2-6)Gal(b1-4)GlcNAc(b1-2)Man(a1-6)]Man(b1-4)GlcNAc(b1-4)GlcNAc
Procedure, shortened: as §1

[29] = target: Neu5Ac(a2-6)Gal(b1-4)GlcNAc(b1-2)Man(a1-3)[Man(a1-6)]Man(b1-4)GlcNAc(b1-4)GlcNAc
Procedure, shortened: as §1

[30] = target: Neu5Ac(a2-6)Gal(b1-4)GlcNAc(b1-2)Man(a1-3)[Neu5Ac(a2-3)Gal(b1-4)GlcNAc(b1-2)Man(a1-6)]Man(b1-4)GlcNAc(b1-4)GlcNAc
Procedure, shortened: as §1

[31] = target: Neu5Ac(a2-6)Gal(b1-4)GlcNAc(b1-2)Man(a1-3)[Neu5Ac(a2-6)Gal(b1-4)GlcNAc(b1-2)Man(a1-6)]Man(b1-4)GlcNAc(b1-4)GlcNAc
Procedure, shortened: as §1

[32] = target: Neu5Ac(a2-6)Gal(b1-4)GlcNAc(b1-2)Man(a1-3)[Neu5Ac(a2-6)Gal(b1-4)GlcNAc(b1-2)Man(a1-6)]Man(b1-4)GlcNAc(b1-4)[Fuc(a1-6)]GlcNAc
Procedure, shortened: as §1

[33] = target: Neu5Ac(a2-6)Gal(b1-4)GlcNAc(b1-2)Man(a1-6)Man(b1-4)GlcNAc(b1-4)GlcNAc
Procedure, shortened: as §1

[34] = target: Neu5Ac(a2-6)Gal(b1-4)GlcNAc(b1-2)Man(a1-6)[Gal(b1-4)GlcNAc(b1-2)Man(a1-3)]Man(b1-4)GlcNAc(b1-4)GlcNAc
Procedure, shortened: as §1

[35] = target: Neu5Ac(a2-6)Gal(b1-4)GlcNAc(b1-2)Man(a1-6)[GlcNAc(b1-2)Man(a1-3)]Man(b1-4)GlcNAc(b1-4)GlcNAc
Procedure, shortened: as §1

[36] = target: Neu5Ac(a2-6)Gal(b1-4)GlcNAc(b1-2)Man(a1-6)[Man(a1-3)]Man(b1-4)GlcNAc(b1-4)GlcNAc
Procedure, shortened: as §1

[37] = target: Neu5Ac(a2-6)Gal(b1-4)GlcNAc(b1-2)[Neu5Ac(a2-6)Gal(b1-4)GlcNAc(b1-4)]Man(a1-3)[GlcNAc(b1-4)][Neu5Ac(a2-6)Gal(b1-4)GlcNAc(b1-2)[Neu5Ac(a2-6)Gal(b1-4)GlcNAc(b1-6)]Man(a1-6)]Man(b1-4)GlcNAc(b1-4)GlcNAc
Procedure, shortened: as §1

[38] = target: Neu5Ac(a2-6)Gal(b1-4)GlcNAc(b1-2)[Neu5Ac(a2-6)Gal(b1-4)GlcNAc(b1-4)]Man(a1-3)[GlcNAc(b1-4)][Neu5Ac(a2-6)Gal(b1-4)GlcNAc(b1-4)Man(a1-6)]Man(b1-4)GlcNAc(b1-4)GlcNAc
Procedure, shortened: as §1

[39] = target: Neu5Ac(a2-6)Gal(b1-4)GlcNAc(b1-2)[Neu5Ac(a2-6)Gal(b1-4)GlcNAc(b1-6)]Man(a1-6)[Neu5Ac(a2-6)Gal(b1-4)GlcNAc(b1-2)Man(a1-3)][GlcNAc(b1-4)]Man(b1-4)GlcNAc(b1-4)GlcNAc
Procedure, shortened: as §1

[40] = target: Neu5Ac(a2-6)Gal(b1-4)GlcNAc(b1-3)Gal(b1-3)GlcNAc
Procedure, shortened: as §1

[41] = target: Neu5Ac(a2-6)Gal(b1-4)GlcNAc(b1-3)Gal(b1-4)GlcNAc
Procedure, shortened: as §1

[42] = target: Neu5Ac(a2-6)Gal(b1-4)GlcNAc(b1-3)Gal(b1-4)GlcNAc(b1-2)Man(a1-3)[Neu5Ac(a2-6)Gal(b1-4)GlcNAc(b1-3)Gal(b1-4)GlcNAc(b1-2)Man(a1-6)]GalNAc
Procedure, shortened: as §1

B1: AAL (Agrocybe aegerita), Q6WY08 (protein)
chain: MQGVNIYNISAGTSVDLAAPVTTGDIVTFFSSALNLNAGAGNPNNTTLNLFAENGAYLLHIAHRLQENVIIFNSRQPDGPWLVEQRVSDVANQFAGIDGKAMVTVFDHGDKYQVVINEKTVIQYTKQISGLTLSLSYNATEETSIFSTVVEAVTYTGLALEHHHHHH
Q: B1 was tested. Which “glycan array binding signal (z-score)” value [1] did it give?
A: -0.144

Q: And the “glycan array binding signal (z-score)” value [2]?
A: -0.488

Q: What about the “glycan array binding signal (z-score)” value [3] of the same binder?
A: 0.404

Q: And the “glycan array binding signal (z-score)” value [4]?
A: -0.341

Q: And the “glycan array binding signal (z-score)” value [5]?
A: 0.021

Q: And the “glycan array binding signal (z-score)” value [6]?
A: -0.11

Q: What about the “glycan array binding signal (z-score)” value [7] of the same binder?
A: -0.001

Q: What about the “glycan array binding signal (z-score)” value [8] of the same binder?
A: 0.841

Q: What about the “glycan array binding signal (z-score)” value [9] of the same binder?
A: -0.467

Q: What about the “glycan array binding signal (z-score)” value [10] of the same binder?
A: 0.213

Q: And the “glycan array binding signal (z-score)” value [11]?
A: -0.214

Q: And the “glycan array binding signal (z-score)” value [12]?
A: -0.178

Q: And the “glycan array binding signal (z-score)” value [13]?
A: -0.139

Q: And the “glycan array binding signal (z-score)” value [14]?
A: -0.311

Q: What about the “glycan array binding signal (z-score)” value [15] of the same binder?
A: -0.264

Q: And the “glycan array binding signal (z-score)” value [16]?
A: -0.108

Q: And the “glycan array binding signal (z-score)” value (Neu5Ac(a2-3)GalNAc)?
A: -0.047

Q: And the “glycan array binding signal (z-score)” value [17]?
A: -0.23

Q: And the “glycan array binding signal (z-score)” value [18]?
A: 0.326

Q: And the “glycan array binding signal (z-score)” value [19]?
A: -0.067

Q: And the “glycan array binding signal (z-score)” value [20]?
A: 0.14

Q: What about the “glycan array binding signal (z-score)” value [21] of the same binder?
A: -0.163

Q: And the “glycan array binding signal (z-score)” value (Neu5Ac(a2-6)Gal)?
A: 0.006

Q: What about the “glycan array binding signal (z-score)” value [22] of the same binder?
A: -0.255

Q: And the “glycan array binding signal (z-score)” value (Neu5Ac(a2-6)Gal(b1-4)Glc)?
A: -0.092

Q: What about the “glycan array binding signal (z-score)” value [23] of the same binder?
A: -0.233

Q: What about the “glycan array binding signal (z-score)” value [24] of the same binder?
A: 0.043

Q: What about the “glycan array binding signal (z-score)” value [25] of the same binder?
A: -0.19

Q: And the “glycan array binding signal (z-score)” value [26]?
A: -0.484

Q: And the “glycan array binding signal (z-score)” value [27]?
A: -0.73

Q: What about the “glycan array binding signal (z-score)” value [28] of the same binder?
A: -0.516

Q: And the “glycan array binding signal (z-score)” value [29]?
A: -0.377

Q: And the “glycan array binding signal (z-score)” value [30]?
A: -0.144

Q: And the “glycan array binding signal (z-score)” value [31]?
A: 0.043

Q: And the “glycan array binding signal (z-score)” value [32]?
A: 0.709

Q: What about the “glycan array binding signal (z-score)” value [33] of the same binder?
A: -0.262

Q: And the “glycan array binding signal (z-score)” value [34]?
A: -0.183

Q: And the “glycan array binding signal (z-score)” value [35]?
A: 0.172

Q: And the “glycan array binding signal (z-score)” value [36]?
A: -0.239

Q: What about the “glycan array binding signal (z-score)” value [37] of the same binder?
A: -0.59

Q: And the “glycan array binding signal (z-score)” value [38]?
A: 0.31

Q: And the “glycan array binding signal (z-score)” value [39]?
A: -0.298

Q: And the “glycan array binding signal (z-score)” value [40]?
A: -0.301

Q: And the “glycan array binding signal (z-score)” value [41]?
A: -0.374

Q: What about the “glycan array binding signal (z-score)” value [42] of the same binder?
A: -0.58
